The record followed here is PubChem BioAssay AID2060487 (Molecular Pharmacology Branch, DTP, NCI, 2025).

Each structure is given as a SMILES string. Not every entry of the source has a single result; some have several. Only these are listed. There may be further records. Values given together repeat one measurement (runs, samples, wells, individuals or studies). Marks such as (2×) say how often a value occurs here.

The experiment has as its system 997537-175-T-J1-PDC complex spheroid viability. Description: Anticancer human tumor 997537-175-T-J1-PDC patient-derived colon adenocarcinoma cell line growth inhibition [GQUAD]. To be noted: for IC50: compound alone; for viability, T/C: stronger effect = lower value. From the text: DNA G-quadruplex Stabilizer Agents in Combinations in Complex Spheroids
A high-throughput screen of multi-cell type tumor spheroids was designed to identify active combinations of DNA G-quadruplex stabilizer agents and targeted small molecules. Complex spheroids include a stromal component modeled by human endothelial cells (HUVEC) and fibroblasts modeled by human mesenchymal stem cells (MSCs). The concentration ranges selected for each drug and investigational agent were based upon clinically achievable concentrations if the clinical Cmax of the agent was known.
Compounds. The drugs and investigational agents: pidnarulex (CX-5461; NSC782164), APTO-253 (NSC789042), BRACO-19 (NSC847499), peposertib (NSC802822), ceralasertib (NSC780249), elimusertib (NSC800525), camonsertib (NSC841442), AZD-1390 (NSC803789), olaparib (NSC753686), talazoparib (NSC767125), ART-558 (NSC835418), sotorasib (NSC818433), MRTX-1133 (NSC836407), SN-38 (NSC673596), topotecan (NSC609699), etoposide (NSC141540), doxorubicin (NSC123127), gemcitabine (NSC613327), 5-fluorouracil (NSC19893), paclitaxel (NSC125973), vemurafenib (NSC761431), panobinostat (NSC761190), R-306465 (JNJ-16241199; NSC773264), adavosertib (NSC754352), TP-3654 (NSC805149), carboplatin (NSC241240), KSQ-4279 (NSC840948), and staurosporine (NSC755774) were obtained from the National Cancer Institute (NCI) Developmental Therapeutics Program Chemical Repository (34). The FDA-approved anticancer drug set is available from the NCI Developmental Therapeutics Program. […] The stock solutions were prepared in dimethyl sulfoxide (DMSO, Sigma-Aldrich, St. Louis, MO, cat. D2650) at 800-fold the tested concentration and stored at -70 degrees C prior to their use. All drugs and investigational agents were tested over a range starting from a high concentration at or near the clinical Cmax and decreasing in half-log increments. If the clinical Cmax for an agent had not been determined, the highest concentration tested was 10 microM.
2.3 Cell Culture. All cells were maintained in an incubator at 37 degrees C and 5% CO2 with 95% humidity. The PDC lines were cultured according to standard operating procedures established by the NCI PDMR. All PDCs were thawed and cultured in Matrigel-coated flasks prepared with a working solution of 1X Ham's F-12 nutrient mix, without supplementation (Invitrogen, cat. 11765054), 100 U/mL penicillin-streptomycin (Invitrogen, cat. 15140122), and 2.5% Matrigel (Corning Inc., cat. 354248) for the first three passages. The 857933-349-R-J2-PDC line was cultured in 6C/Colon 1B media, which includes advanced DMEM/F-12 (Thermo Fisher Scientific, cat. 12634028), 10 mM HEPES (Thermo Fisher Scientific, cat. 15630080), 1X GlutaMAX supplement (Thermo Fisher Scientific, cat. 35050061), 0.1 mg/mL primocin (InvivoGen, cat. ant-pm-2), 10% defined fetal bovine serum, heat inactivated (HyClone Laboratories Inc., cat. SH30070.03HI), 50% L-WRN conditioned media (ATCC, cat. CRL-3276), 1.25 mM N-Acetyl-L-cysteine (Sigma-Aldrich, cat. A9165), 10 mM nicotinamide (Sigma-Aldrich, cat. N0636), 1X B-27 supplement (Thermo Fisher Scientific, cat. 17504044), 1X N-2 supplement (Thermo Fisher Scientific, cat. 17502048), 10 microM Y-27632 dihydrochloride (Tocris Bioscience, cat. 1254), and 50 ng/mL human EGF recombinant protein (Thermo Fisher Scientific, cat. PHG0311). The 485176-168-R4-J1-PDC line was cultured in Panc media, which includes all 6C/Colon 1B media components plus 100 ng/mL human FGF-10 (Thermo Fisher Scientific, cat. 100-26), 500 nM SB-431542 (Selleckchem, cat. S1067), and gastrin (Tocris, cat. 3006).
[…]
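Note: spheroids exposed to the agents for 7 days.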
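Throughout, for viability, T/C: 100% = DMSO vehicle control viability.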

By IC50 is commonly meant the concentration needed to halve the response being measured. For `CC(=O)O[C@H]1C(=O)[C@@]2(C)[C@H]([C@H](OC(=O)c3ccccc3)[C@]3(O)C[C@H](OC(=O)[C@H](O)[C@@H](NC(=O)c4ccccc4)c4ccccc4)C(C)=C1C3(C)C)[C@]1(OC(C)=O)CO[C@@H]1C[C@@H]2O`, the 50% inhibitory concentration (IC50) was < 31.6 nM, 3.23 µM, 72.1 nM.
As for `CN(C)c1ccc(Nc2c3ccc(NC(=O)CCN4CCCC4)cc3nc3cc(NC(=O)CCN4CCCC4)ccc23)cc1`, the viability, T/C is 103, 97.9, 93.2, 97.8, 89.5, 100, 107, 80.6, 96.9, 96.6, 89.3, 98.4% (compound alone 0.0316 µM); 99, 103, 101 (3×), 94.3, 97.8, 105, 74.1, 97.1, 106, 102% (compound alone 0.1 µM); 104 (2×), 100, 98.7, 94.5, 101, 79.7, 85.2, 105, 98.5, 107, 97.2% (compound alone 1 µM); 83.7, 99, 87.3, 78.1, 97.5, 88.1, 84.8, 88.4, 96.9, 91.3, 89.6, 104% (compound alone 3.16 µM); 88.8, 98.3, 62.5, 80.7, 87.1, 85.1, 87.9, 85.2, 80.5, 76, 96.7, 94.3% (compound alone 10 µM).
For `O=C(NO)c1cnc(N2CCN(S(=O)(=O)c3ccc4ccccc4c3)CC2)nc1`, the IC50 was 1.73 µM, 57.6 nM, 1.86 µM.
In the case of `Cc1[nH]c2ccc(F)cc2c1-c1nc2c3cccnc3c3ncccc3c2[nH]1`, the viability, T/C (compound alone 0.0316 µM) is 73.5, 95.8, 98.7, 92, 104 (2×), 85.3, 100, 96.7, 96.1, 97.5, 98.5%; the viability, T/C (compound alone 1 µM) is 81.9, 94.9, 95.8, 96.4, 107, 113, 97.4, 92.3, 88.4, 92.5, 102, 96.7%; the viability, T/C (compound alone 10 µM) is on record as 72.9, 87.9, 81.7, 65.8, 85.3, 85, 71.7, 68.8, 92.9, 83.3, 82.9, 80.3%.
Take `Cc1cnc(CNC(=O)c2c(=O)c3ccc(N4CCCN(C)CC4)nc3n3c2sc2ccccc23)cn1`: the viability, T/C (compound alone 0.0316 µM) is on record as 106, 89.2, 97.7, 96, 95.5, 93.3, 88.2, 96.2, 81.9, 90.4, 81, 79.7% and the viability, T/C (compound alone 3.16 µM) is reported as 111, 93.2, 99.8, 109, 106, 86.8, 83.1, 95.8, 105, 113, 101, 95.2%.
